Results from article PMC6212790.
The other results are listed elsewhere or left out. At the low end of the ranking the order means little.

target: T1, GST-Rok-C97-191 (UniProt O34857); assay: protein binding microarray; settings: Rok is a gene silencer of Bacillus subtilis; high values mean tight binding; most listed sequences are background and not binding sites; double strand, one strand shown;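 note: rank score from −0.5 (least bound) to 0.5 (best bound)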
T1 sequence: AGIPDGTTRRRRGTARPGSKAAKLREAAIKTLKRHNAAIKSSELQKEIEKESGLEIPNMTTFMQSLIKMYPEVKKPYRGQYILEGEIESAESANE

| Sequence | binding signal [E-score] |
| --- | --- |
| CTTCGACC | -0.246 |
| AAAATGAT | 0.0611 |
| ATCATGAG | -0.0972 |
| GGCTCGAA | -0.137 |
| GACACCAA | -0.0487 |
| CATCTGGC | -0.228 |
| ACACTCAG | -0.053 |
| AATGAGTG | -0.13 |
| CACCGAAC | -0.185 |
| CGTGACGC | 0.0151 |
| AGGGTATC | -0.118 |
| ATGAGCGG | -0.147 |
| CCTCCTAC | -0.0349 |
| CTATCACC | 0.0898 |
| CCTATACC | 0.137 |
| GAAGAAGC | -0.243 |
| ACTGTCGA | -0.0442 |
| GGCCTAAC | -0.273 |
| CATGGGGG | -0.272 |
| AAGGCTCA | -0.276 |
| CACCAGAG | -0.11 |
| ACGGGTCT | -0.0539 |
| AACCTAGA | 0.13 |
| ACAATGCT | -0.0792 |
| ATTTAGGC | 0.00897 |

| Sequence | binding signal [E-score] |
| --- | --- |
| AGTTGAAC | -0.0218 |
| GCACTCGC | -0.271 |
| CCTTAATC | -0.172 |
| CGAAATGA | -0.0888 |
| ATAACGTG | 0.146 |
| ATTATATG | 0.223 |
| AACGAACA | 0.0175 |
| ATACCAAA | 0.0654 |
| TACGTGCA | 0.075 |
| AATGAATG | -0.0115 |
| CTTCGCCA | 0.00426 |
| TGCTAACA | 0.0788 |
| ATGTGCTG | -0.0931 |
| CCCCGTGA | -0.191 |
| GGGACCAC | -0.385 |
| AGTTGTTG | 0.11 |
| CGGGCGAA | -0.24 |
| CACTGCGC | -0.194 |
| GGAAGGCA | -0.25 |
| GGAATGTA | 0.168 |
| CATCGGCG | 0.0323 |
| AAATTAGG | 0.195 |
| ATCGTACC | -0.134 |
| AACGTAAC | 0.0345 |
| AAGAGTGA | 0.0515 |

| Sequence | binding signal [E-score] |
| --- | --- |
| CACGAGGG | -0.351 |
| ATTTTGTG | 0.142 |
| GATCGGGA | -0.0531 |
| CCGGGCCC | -0.431 |
| CAGGAACC | -0.163 |
| ATCAGGTA | 0.0822 |
| GGTCGGCA | -0.251 |
| AATTCCCT | -0.0518 |
| AACGTGGG | -0.144 |
| CAACAGTA | 0.315 |
| ACATCTCT | -0.0589 |
| TCCTGCCA | 0.0796 |
| ACTGCCTA | -0.0171 |
| CTGATTCA | -0.0414 |
| CGCGGGCC | -0.276 |
| ACCGTGCT | 0.0327 |
| AGGCAGAA | -0.163 |
| AATCCTAT | 0.273 |
| GAACCACA | -0.133 |
| ACAGAGCC | -0.173 |
| CACCGCAA | -0.114 |
| GCGCGGCC | -0.402 |
| GAGGTGTA | 0.0774 |
| GGTGTGAC | -0.139 |
| GTTTTCCA | -0.181 |

| Sequence | binding signal [E-score] |
| --- | --- |
| AGGCAACG | -0.0481 |
| CCGCAAGC | -0.233 |
| CCATCTGA | 0.0365 |
| TAGGCGAA | 0.0738 |
| CCCACACA | -0.0699 |
| ACGTATGA | 0.00348 |
| AATGGAGA | 0.0615 |
| CAAAGATC | -0.0941 |
| ACCTCGCG | -0.201 |
| CACCCTTC | -0.147 |
| TAAACCCA | -0.011 |
| GTCCTTCA | -0.00306 |
| ATAAGCAA | 0.144 |
| CTAAGGAA | -0.0634 |
| AAGCCGTG | -0.207 |
| CCTAGGAG | -0.0449 |
| AGAGGGCC | -0.23 |
| CAATGAAA | -0.098 |
| AATACTTC | 0.214 |
| GCTGGGAA | -0.128 |
| CTAATCGC | 0.142 |
| GCTCAGCC | -0.0561 |
| AATATGAC | 0.16 |
| AAAAAAAG | 0.0553 |
| CTCTGGAC | -0.117 |

| Sequence | binding signal [E-score] |
| --- | --- |
| ACGTACTA | 0.186 |
| CCATTCAA | -0.121 |
| ACAATACG | 0.0553 |
| ATCATTCG | 0.0549 |
| CATCGATA | 0.259 |
| GACGCGCC | -0.319 |
| GGACCACC | -0.364 |
| ACGAGGCT | -0.137 |
| TCGGCCAA | -0.0806 |
| GTCATTTA | 0.0352 |
| CCTTTACG | -0.0108 |
| CGTAATAA | 0.323 |
| GAATAGAC | 0.0737 |
| AGCCGCCG | -0.359 |
| GATTGTTA | 0.183 |
| AAGCAATG | -0.116 |
| AAATATGG | 0.279 |
| CGTCCGGC | -0.185 |
| CCGCGTTC | -0.185 |
| GTTTAGTA | 0.31 |
| CCAGAACA | -0.0486 |
| GCCCAGCC | -0.439 |
| GAGTGAGC | -0.144 |
| CCCGTTAC | 0.064 |
| AGGCCTCG | -0.183 |

| Sequence | binding signal [E-score] |
| --- | --- |
| AGCTCCAA | -0.0742 |
| CAAGCGGA | -0.104 |
| GAATCTGA | -0.144 |
| AATGTTTC | 0.106 |
| AAGCGCGG | -0.107 |
| ATGATGTG | 0.0328 |
| ATGAATGG | 0.00148 |
| GAACCATC | 0.0782 |
| CTATATAA | 0.359 |
| TCTGAAGA | -0.123 |
| CGTTTCCC | -0.21 |
| GCTTCTCC | -0.242 |
| GGTATCAC | 0.233 |
| GTCGTAGA | 0.159 |
| CCGTGGCC | -0.238 |
| GCGCATAC | 0.0738 |
| CCTCTACG | -0.128 |
| TCCCAGAA | -0.0625 |
| AGACAAAA | -0.146 |
| CACCCAAA | -0.0429 |
| ACATAGCC | -0.0062 |
| TACGGCCA | -0.0766 |
| ACAGACAG | 0.0147 |
| ATTATAAG | 0.316 |
| CAAATACC | 0.114 |

| Sequence | binding signal [E-score] |
| --- | --- |
| AAGTCCAT | 0.18 |
| CCCAACTC | -0.194 |
| CAGGTTAA | -0.0938 |
| GCTCGAAC | -0.0938 |
| AACTGATG | 0.0551 |
| GCTATGCC | -0.172 |
| CGTCCTAA | 0.0235 |
| ACTACGCA | -0.0187 |
| GCGGAACC | -0.319 |
| AGCGCTCG | -0.215 |
| AAGACCCC | -0.237 |
| AGTACACA | 0.184 |
| ACAAGAAG | -0.0588 |
| GGTAGCAC | 0.16 |
| AACGCGTC | -0.195 |
| AGCCCCTA | -0.272 |
| CCCTGAGA | -0.189 |
| ACTTGTTA | 0.282 |
| CCACGCTC | -0.0229 |
| AAGACAAT | 0.00827 |
| TATGTACA | 0.345 |
| AGGAATGA | 0.0981 |
